Measurements: patent US7316989B2 (priority 2001, dated 2008)

Tests used:
[1] = tested on: melon dead arm fungus (Fusarium oxysporum f. sp. melonis race 2); assay: Melon Fusarium wilt control test; conditions: melon (Ams) submerged 10 hr, 20 ppm in terms of cerebroside B; disease development of roots 21 days after inoculation
Description: Melon plants (variety: Ams) (third- or fourth-leaf (true leaf) developed) were submerged in each test liquid for 10 hr. Thereafter, conidia of melon dead arm fungus (Fusarium oxysporum f. sp. melonis race 2) cultured in a potato-dextrose medium were inoculated by drenching.
This effect is considered attributable to the fact that the penetration transfer of the cerebroside as the active ingredient into the plant body can be enhanced by the spreading effect of the liposoluble substance contained in the disease resistance-inducing composition of the present invention upon application.

[2] = tested on: rice (variety: Akitakomachi); set-up: key: ◯: normal; X: water-repellent; conditions: in vivo; rice leaves after application of liquid diluted to 10 ppm in terms of cerebroside B
Description: Concentrates with respective concentrations provided in the course of the preparation of ethanol extract concentrate A in Example 1, and a solution obtained by further concentrating extract concentrate A were examined for the liposoluble substance content, the cerebroside B content, and the control effect for rice blast. For the concentrations of the individual concentrates, the ethanol extract after the completion of the extraction step was regarded as a one-fold diluted solution, and the ratio of the amount of the liquid after the completion of the extraction to the amount of the liquid after each concentration operation in the concentration/separation step was regarded as the concentration ratio. In this way, 1-, 2-, 5-, 10-, 20-, 30-, and 50-fold diluted solutions were provided for the test. The liposoluble substance content was expressed in terms of an n-hexane extract. Further, for the individual liquids, the spreadability of the testing liquids, state of the liquids upon dilution, the state of the foliar surface as the level of physiological disorder of the liquid applied leaves were compared.
To examine the disease control effect, an evaluation test was carried out by the following method. […]

With `CCCCCCCCCCCCCC[C@@H](O)C(=O)N[C@@H](CO[C@@H]1O[C@H](CO)[C@@H](O)[C@H](O)[C@H]1O)[C@H](O)/C=C/CC/C=C(\C)CCCCCCCCC` [cerebroside B, (4E,8E)-N-D-2′-hydroxypalmitoyl-1-O-β-D-glucopyranosyl-9-methyl-4,8-sphingadienine] as the molecule, how does the Protective value [1] read?
The Protective value was 52.

And the “State of foliar surface” value [2]?
The value was “◯”.
